# Reference: article PMC6919601, “Identification of Plasmodium dipeptidyl aminopeptidase allosteric inhibitors by high throughput screening” (PLoS ONE, 2019)
# Out of some 110,000 compounds screened, about 230 (0.21%) showed an effect of 50% or more. The list shows a part of the results.
# Biological target: DPAP1 (Plasmodium falciparum, UniProt Q8IIJ9)
# Assay: primary screen, percent inhibition; read by cleavage of a fluorogenic dipeptide substrate; higher = more effect of the substance
# Parameters: species or system P. falciparum D10 trophozoite lysates; single well
# 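Further: 30 min substrate incubation versus DMSO and 10 µM JCP410 controls.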
# Sequence of DPAP1 (Q8IIJ9 whole entry, looked up): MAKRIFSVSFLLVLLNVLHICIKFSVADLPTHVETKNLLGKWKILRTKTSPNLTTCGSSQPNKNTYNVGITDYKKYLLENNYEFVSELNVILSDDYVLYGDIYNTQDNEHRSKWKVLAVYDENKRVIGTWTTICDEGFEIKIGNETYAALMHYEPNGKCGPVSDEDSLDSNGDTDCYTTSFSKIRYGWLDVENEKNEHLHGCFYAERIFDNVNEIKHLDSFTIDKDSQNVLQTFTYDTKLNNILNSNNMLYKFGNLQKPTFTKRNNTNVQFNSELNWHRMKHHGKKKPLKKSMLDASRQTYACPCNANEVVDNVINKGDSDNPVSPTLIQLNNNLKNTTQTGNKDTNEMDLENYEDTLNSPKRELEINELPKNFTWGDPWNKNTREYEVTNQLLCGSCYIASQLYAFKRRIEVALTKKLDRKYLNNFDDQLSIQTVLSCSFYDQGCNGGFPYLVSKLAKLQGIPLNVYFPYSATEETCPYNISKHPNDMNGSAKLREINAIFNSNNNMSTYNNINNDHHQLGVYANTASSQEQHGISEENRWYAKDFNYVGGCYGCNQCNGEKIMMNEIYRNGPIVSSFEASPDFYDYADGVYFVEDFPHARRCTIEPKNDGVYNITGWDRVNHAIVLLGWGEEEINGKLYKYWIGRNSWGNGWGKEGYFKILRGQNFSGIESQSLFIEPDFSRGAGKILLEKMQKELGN
row,Compound,% Inhibition @ 10 uM [%]
1,COc1ccc2c(c1)CCC1C2=CCN2C(=O)CCC12 (stereo not shown),4.28
2,NC1=NC(c2cccc(Cl)c2)N(CCc2ccc(F)cc2)C(N)=N1 (stereo not shown),-4.81
3,CCN(CC)C(=O)C1CCCN(Cc2ccc(C(C)C)cc2)C1 (stereo not shown),-1.07
4,COC(=O)C1=C(C)N(CCc2ccc(OC)cc2)C(=O)/C1=C\c1ccc(C(=O)OC)cc1,-6.87
5,CN(C)CCN(Cc1ccccc1)Cc1ccc(C(F)(F)F)cc1,-5.2
6,Cc1c(C(=O)N2CCC(C)CC2)oc2ccc(S(=O)(=O)N3CCCCCC3)cc12,0.287
7,C=CCSC1=C(C#N)C(c2ccccc2Cl)C(C(=O)Nc2ccccc2C)=C(C)N1 (stereo not shown),5.29
8,CCN(CC)CCNC(=O)C1c2cc(OC)c(OC)cc2C(=O)N(C)C1c1cccs1 (stereo not shown),9.56
9,Cc1c(-c2nc(O)c3ccccc3n2)sc2nc(-c3ccccc3)nc(N)c12,3.06
10,CCCC(=O)Nc1ccc(S(=O)(=O)N2CCOCC2)cc1,-2.78
11,Cc1ccc2c(c1)-c1onc(C(=O)N3CCN(C4CCCCC4)CC3)c1CO2,10.9
12,O=C(Nc1ccc(F)cc1F)C1CCN(C(=O)c2ccc(-c3ccccc3)cc2)CC1,5.73
13,Fc1ccccc1/C=C/c1nn2c(-c3cccnc3)nnc2s1,-1.31
14,Cc1cccn2c(=O)c3cc(C(=O)NCC(C)C)n(C)c3nc12,-1.42
15,CCOc1ccc(C2C(=O)N(C3CCCCC3)CC(=O)N2Cc2ccccc2Cl)cc1OC (stereo not shown),-2.14
16,CCOc1ccccc1C(=O)NC1CCC(NC(=O)c2ccccc2OCC)CC1 (stereo not shown),0.528
17,O=C(NCc1ccc2c(c1)OCO2)c1ccc(CSCc2ccc(Cl)cc2)o1,5.23
18,O=C(Nc1nc(-c2ccccc2)cs1)c1ccc2c(c1)OCO2,6.5
19,COc1ccc2c(c1)c1ncn(CCCN3CCN(C)CC3)c(=O)c1n2C,-7.27
20,COc1ccccc1NC(=O)c1ccc(COc2ccccc2Br)o1,-1.04
21,CN(Cc1ccc(-c2ccccc2)cc1)CC(O)c1ccccc1 (stereo not shown),3.48
22,COc1ccc(C2CC(C(F)(F)F)n3nc(C(=O)NCc4cnn(C)c4C)c(Cl)c3N2)cc1 (stereo not shown),-0.988
23,CC1(NC(=S)NC2CCS(=O)(=O)C2)CCS(=O)(=O)C1 (stereo not shown),2.56
24,COc1ccccc1C/N=C/C1=C(O)c2sccc2N(Cc2ccccc2)S1(=O)=O,2.33
25,CCOC(=O)c1nc(CS(=O)(=O)c2ccccc2)no1,3.68

row,Compound,% Inhibition @ 10 uM [%]
1,Cc1ccc2nc(N3CCOCC3)c3nncn3c2c1,-0.692
2,CCOC(=O)N1CCC(N2CCN(Cc3ccccc3)CC2)CC1,-1.82
3,CCN(CC)c1ccc(C2C3=C(O)CCCC3=NC(C)=C2C(=O)Nc2cc(C)ccn2)cc1 (stereo not shown),-1.07
4,COCCN1C(=O)C(O)=C(C(=O)c2ccco2)C1c1cccc(OC)c1 (stereo not shown),-0.891
5,O=C1C2C3CCC(C3)C2C(=O)N1c1ccccc1Cl (stereo not shown),-7
6,Cc1nc2nc(CNC(=O)OC(C)(C)C)nn2c(C)c1CCC(=O)NCCCN1CCCC1=O,-2.17
7,CC1=C(C(=O)Nc2cc(C)ccn2)C(c2ccc(C)cc2)C2=C(O)CC(C)(C)CC2=N1 (stereo not shown),4
8,N=C1/C(=C\c2cccn2-c2ccc3ccccc3c2)C(=O)N=C2SC=NN12,-0.00718
9,Nc1nc(S)nc2nc(-c3ccccc3)c(-c3ccccc3)nc12,-2.8
10,COc1ccc(CNC(=O)CCCc2nnc3n(C)c(=O)c4sccc4n23)cc1,-6.87
11,COc1ccc(C(=O)Nc2ccc(S(=O)(=O)Nc3nc(C)cc(C)n3)cc2)c(OC)c1,-0.239
12,Cc1ccc(C(=O)C2=C(O)C(=O)N(CCCn3ccnc3)C2c2cccc(Br)c2)cc1 (stereo not shown),0.583
13,CCCCN(CC)C(=O)c1cnn(-c2ccccc2Cl)c1NC(C)=O,0.583
14,COc1cc(NC(=O)C(C)Oc2ccccc2)c(C(=O)O)cc1OC (stereo not shown),1.72
15,O=C(O)c1ccccc1N1C(=O)C2C3C=CC(C3)C2C1=O (stereo not shown),0.937
16,CN1C(=O)/C(=C\c2ccccc2OCC#N)S/C1=N/c1ccccc1,-6.49
17,N#Cc1nc(COc2cccc(Cl)c2)oc1N1CCN(c2ccccc2)CC1,0.658
18,COc1ccc2nc(NC(=O)Nc3cccc4ccccc34)sc2c1,-1.92
19,Cc1ccc(-c2nc(NC(=O)C(C(C)C)N3C(=O)c4ccccc4C3=O)sc2C)cc1 (stereo not shown),-2.87
20,O=C(/C(=C/c1c[nH]c2ccccc12)n1cncn1)c1ccc(Cl)cc1Cl,0.00706
21,Cc1nn(C)cc1CNC(=O)NC1CCCCC1,-1.36
22,COc1ccccc1OCCOc1c(OC)cc(/C=C2/C(=N)N3OC(C)=CC3=NC2=O)cc1OC,2
23,CN1CCN(Cc2ccc([N+](=O)[O-])cc2)CC1,1.55
24,CCOC(=O)C1=CN(C)C=C(C(=O)OCC)C1c1ccc(C(F)(F)F)cc1,4.99
25,Cc1ccc2c(c1)c1c(n2C)C(=O)CCC1,1.7

row,Compound,% Inhibition @ 10 uM [%]
1,Cc1ccc(C)c(C2C(C#N)=C(N)Oc3c2oc(CO)cc3=O)c1 (stereo not shown),-2.77
2,O=C(Nc1nc(-c2ccc(F)cc2)cs1)NC12CC3CC(CC(C3)C1)C2,-3.77
3,Cc1nnc2c(N3CCN(C(=O)c4ccco4)CC3)nc3ccccc3n12,1.23
4,Cc1ccc(CC23CN4CCN(CC(C4)C2=O)C3)c(C)c1,-1.82
5,Oc1nnnn1-c1ccc(Cl)cc1,-5.85
6,C=CCNC(=O)CSc1nc(O)c2c(C)c(C)sc2n1,-1.08
7,COc1cc(C(=O)Nc2nc3c(s2)CCc2ccccc2-3)cc(OC)c1OC,0.997
8,COc1ccc(-c2cc(C(F)(F)F)nc(SCC(=O)NCC3CCCO3)n2)cc1 (stereo not shown),-0.958
9,COc1ccc(C2C(=O)N(CCc3ccccc3)CC(=O)N2Cc2ccc(Cl)cc2)cc1 (stereo not shown),4.17
10,CCOc1ccc(N2C(=O)CC(N3CC(C)OC(C)C3)C2=O)cc1 (stereo not shown),5.39
11,Cc1ccccc1C(=O)N1CCN(C(c2ccccc2)c2ccccc2)CC1,4.38
12,COc1cc2ncc(S(=O)(=O)c3ccccc3)c(N3CCC4(CC3)OCCO4)c2cc1OC,-1.85
13,Cc1nc(N2CCN(c3ccccn3)CC2)c2c(C)c(C(=O)Nc3ccc(Cl)cn3)sc2n1,-3.21
14,Cc1cccn2c(=O)c3cc(C#N)c(=O)n(Cc4ccccc4Cl)c3nc12,-5.92
15,O=C(O)C1C2C=CC(O2)C1C(=O)Nc1cccc(Br)c1 (stereo not shown),2.36
16,CC(=O)C(C)n1nnc2sc(-c3ccccc3)cc2c1=O (stereo not shown),4
17,CCOC(=O)N1CCN(CC(O)COCC2COc3ccccc3O2)CC1 (stereo not shown),9.33
18,CC1CCCN(c2c(-c3ccccc3)c(=O)c2=O)C1 (stereo not shown),2.51
19,COc1ccc(OC)c(N(CC(=O)NC(C)(C)C)S(=O)(=O)c2ccc(C)cc2)c1,-1.57
20,COc1ccc(-c2csc3ncn(Cc4ccc(C)cc4)c(=O)c23)cc1OC,-3.92
21,O=C(c1cccnc1S)n1ccnc1,2.05
22,COc1ccc(-c2noc(C(c3ccccc3)c3ccccc3)n2)cc1,4.18
23,CC(C)c1ccc2c(c1)[C@@H]1C=CC[C@@H]1[C@H](c1ccc(S(=O)(=O)N3CCOCC3)cc1)N2,-0.865
24,CCOC(=O)CC1(c2ccc(Cl)cc2)C(=O)c2ccccc2C1=O,-9.97
25,CCOc1ccc(/C=C/c2nc(C#N)c(NC)o2)cc1,-2.57

row,Compound,% Inhibition @ 10 uM [%]
1,CC1(C)Cc2nc3sc(C(=O)NCCO)c(N)c3cc2CO1,3.53
2,O=C(Nc1ccccc1-n1cccc1)C1CC1,1.07
3,Cc1cc(C)c(S(=O)(=O)Nc2ccc(Cl)cc2Cl)c(C)c1,3.47
4,CCNC(=O)c1ccccc1-c1ccccc1C(=O)O,-8.03
5,CCOc1ccc(N(CC(=O)Nc2ccc(F)cc2)S(C)(=O)=O)cc1,17.9
6,CCNC(=S)N(Cc1ccccc1)Cc1ccccc1Cl,-2.51
7,O=C(CCN1C(=O)c2cccc3cccc(c23)C1=O)N1CCN(Cc2ccc3c(c2)OCO3)CC1,0.121
8,CCCCNc1ncnc2c1[nH]c1ccc(OC)cc12,-5.28
9,O=C1OC(c2ccccc2)OC(=O)C1=Cc1ccc(OCc2cccc(C(=O)O)c2)cc1 (stereo not shown),-0.169
10,CC(C)(C)c1cc(CN2CCN(c3ccc(Cl)cc3)CC2)cc(C(C)(C)C)c1O,-0.828
11,CCOc1cc(C(c2c(O)n[nH]c2C)c2c(O)n[nH]c2C)cc(Cl)c1O,0.561
12,CN(CC(=O)NCc1ccco1)S(=O)(=O)c1ccc(-c2ccc(O)nn2)s1,-3.84
13,O=C1NC(=O)/C(=C\c2ccc(-c3ccc(Br)cc3)o2)S1,-2.19
14,Cc1ccc(-n2c(SCC(=O)NCCC3=CCCCC3)nc3nnc(C)c-3c2N)cc1Cl,1.2
15,NS(=O)(=O)c1ccc(NC(=O)c2ccco2)cc1,-0.192
16,Nc1nc2sc3c(c2cc1C(=O)N1CCOCC1)CCCC3,4.26
17,CN(C)C(=O)C(NC(=O)c1ccc([N+](=O)[O-])cc1)C12CC3CC(CC(C3)C1)C2 (stereo not shown),0.937
18,CCN1CCC(N2CCN(CC)CC2)CC1,3.48
19,CC1CCc2c(sc(NC(=O)CCC(=O)O)c2C(=O)Nc2ccc(Cl)cc2)C1 (stereo not shown),20.8
20,Cc1ccc(SCC(=O)Nc2ccc(C(=O)NC(C)(C)C)cc2)cc1,1.89
21,Cc1nc2ccccc2cc1C(=O)Nc1cccc(C(F)(F)F)c1,-1.61
22,OCCN(CCO)Cc1csc2ccccc12,0.843
